# In publication PMC10726135:
# This is one part of the list. At the low end of the ranking, values are background and their order means little. Measured with an extract: partners may take part in the binding.
# Molecular target: T1, HNF4alpha2 (COS-7 nuclear extract) (UniProt P41235)
# T1 sequence: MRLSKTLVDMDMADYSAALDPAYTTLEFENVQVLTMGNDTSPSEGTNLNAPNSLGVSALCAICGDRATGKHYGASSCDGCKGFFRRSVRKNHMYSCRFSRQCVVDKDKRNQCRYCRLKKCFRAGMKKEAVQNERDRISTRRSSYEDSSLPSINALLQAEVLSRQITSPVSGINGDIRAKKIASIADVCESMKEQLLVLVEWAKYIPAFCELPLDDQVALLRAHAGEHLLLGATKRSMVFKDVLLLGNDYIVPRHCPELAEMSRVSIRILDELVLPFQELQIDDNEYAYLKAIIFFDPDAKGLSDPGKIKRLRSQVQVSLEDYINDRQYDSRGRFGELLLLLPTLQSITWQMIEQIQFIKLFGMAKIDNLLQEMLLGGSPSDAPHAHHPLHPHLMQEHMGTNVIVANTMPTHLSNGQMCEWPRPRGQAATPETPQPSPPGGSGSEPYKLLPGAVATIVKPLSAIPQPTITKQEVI
# Test: protein-binding microarray
# Conditions: COS-7 nuclear extract on double-stranded Agilent 4x180k PBM; binding buffer, salt, pH and temperature not given; high values mean tight binding; double strand, one strand shown; sequences stand for … in …GCCTAGGGAGATTAGAGTATCGGTCGA
row,Sequence,binding signal (log2 normalized intensity)
1,CTAGCTGAGTGAGTAGGTTCTCAGCTGACA,-1.08
2,CCTTAGCTCTAGACATCGACCTTTGTGGGC,3.95
3,CAGTTTGAAAAACACTGGATAAAGTCCATA,2.02
4,GGCAGGGTTGGCTGTGGCAATTCCTTAAAA,-0.551
5,AGGCAGAGACTGCCCTGAGCCGCCAGGCGG,-1.16
6,TAATAGCCAGAACTCAGGGTCTGGTTCCAA,-1.08
7,GGCAGGTTGCCCTTTCGGTGGGACTAAATT,1.46
8,CTGATAAAGGAAGGAATTTACTGCAGTCAG,-0.833
9,GTAAGTTAAGTAACTCTCCAAATTCCAGGA,-1.1
10,GTCACGTTCCAGCTGCTTCAGGAGCCCCCT,3.72
11,CCACTGGTGTAAGCTCTGGAGTCCAAAGGT,3.79
12,TGGATTAGTCCCTTTTCACGCTAAGAAGGA,-1.19
13,AGGAGGATCAGGTTTCACTGTTTTGGACAT,1.78
14,TAACTTAACCACTCAATCAGTACTGAAACA,-0.548
15,GCCCCAGCTCGCTCAGCTGGTTGCCCCTTT,4.14
16,AGAGCATCTTGGACTTGGGACTCTGCAGAC,4.76
17,TAAATCATGGGGAGCATCTATTTTCTATTT,-1.12
18,CTGACATGCTGTCACTTCTGCTGCATTCTA,-0.802
19,CCCTTATCTTTTTAGCAACTGGTATGTTAG,2.33
20,ACCTACCCTTTGCCCTGGACATATTTGTCT,2.03
21,GTTCCTGAGATAAAAAGAAGCTTGGTATGT,1.31
22,ATGTGGGGCGTGTGTTAGACTTTGGACCTG,8.86
23,TGGACTAAGAGTAGCGGTTTCTGCTTGGTT,1.09
24,AACATGAAACAGTCACAGTTATCAGACAGA,-1.11
25,GACCTGCGTAGCCCAAAGGTCAGTCTGCAG,3.21

row,Sequence,binding signal (log2 normalized intensity)
1,TGAGATAGGTACTATTATTAGAGTCCCTTT,1.01
2,GGCTGTAGCAACCAAGTACCGCAAACAAGG,-1.1
3,GTCATGTCTCATTGCCCCTTGAGCTAAATA,3.22
4,TGTTCTTGGGGCCCACAGAGTCCAGAGGTC,5.61
5,AAAGGTTAGCTTGGACAGAGTTTGTGGTGT,2.23
6,CCCCAGCATTTTGCAGACCTTGGTCAAAGT,2.3
7,TGGACAGTGTAAGATAAAAATCAGAGATCA,0.35
8,TTGTTTCCTCAGGGAGGAAGGCAACCACAG,-0.909
9,ACTTCTTTGTGATGTGTGGATTCAGCTCAC,1.29
10,GTTCAGGAGTTGTCTGTCCAGTTCAGGAGT,1.37
11,CCTTCAGGGGCATTTGAGTACATGCCTCTC,0.337
12,AAGATGGCTCTCCCGGGGCGGGGGTGACCA,-0.629
13,TGAGCTCTGGGGTCCTCTGCTGCCCTCTAG,2.05
14,ACTTCAGGATTCTTTATCTTAGCTTCAGCT,-1.16
15,AAAGCAAAGTCCAACACAGAAGCCTTTTGT,1.51
16,CCACAAAAGCCAACAGTACAGCCTTTGATC,1.83
17,CCTTTGACCTTCGGCTTCCCCAGAGAAAGA,3.03
18,TTTTATCACCACATCTCCCACTGTGGACTC,3.51
19,AGGGAAAGTGGGGGGAAAGAATAACGTTAC,-1.06
20,GGGAGACCAGGAAAGTGAATATCTGGCAAA,-1.15
21,AAAAGGCTAGAGCGCGCTGGAATCTTGATA,-1.2
22,ACTTCTGAGTTTTATCAGCTTCCCTGAGAT,1.12
23,AGATTCTTTCTTCCTTTTGAAAAAGTGAGT,0.753
24,TTTAAGATTCCAGCTCTCGGATCCTCTGGG,-1.22
25,GCAAGTAATTAAACATTTATTGAGCAGGTT,0.444

row,Sequence,binding signal (log2 normalized intensity)
1,ATCTTGGAACAGGTCTCAGGAGTCCAGGGG,-0.518
2,TATGTCATAATGTACTCCACTGTGCAGTGG,0.38
3,ATCATAGTGTTTCTTCTGGTTCTGCAAGGC,1.26
4,TCAGGCAAACAACAGGCATCAACTCTATCA,-1.15
5,GCCAAAAGTCTCAGAAGCTGGGAGACCACT,-1.26
6,ATAAGGTGAACATACGTGGCTACCTGTGCA,-0.872
7,CTGCTTAAACCTTTCAAGGGATTCCTATCG,-0.991
8,CAAGGGTGGATATTGGGAGGCCCATTGTGC,0.557
9,CAGTCTAGAATCTGCAGCCCCTTTTGGAAT,2.02
10,GCACACCTGGATCTTCCAGGCCTCCAGCTC,-1.14
11,AAGCAGGAGCATGGGGGATGGGGCCTGGGA,-1.1
12,ACAGCGTTTTCCCATTCATGACATTGATTT,1.66
13,AGTCTTTATTGGTACGTTCCAATATTCTGG,1.61
14,CTTTTTTTCCCCCTCACTGAATATGTTCGG,2.31
15,TTCACATAGCCACCAGGGCCTCTGAGATAA,-0.994
16,GACACTTTGAGAGAGGGACATGCTTGGCCT,-1.11
17,GAGACTGCCCTGAGCCGCCAGGCGGGTTCT,-1.05
18,CCAGCCCTTCACCAGAGCCGTCTGGTAAAT,-1.13
19,GTGAAATGGGGGAAGGGCTGGAGACGCAGG,-1.12
20,GGCCTGGGGGGAGACAACTGCAACAGGAGG,-1.14
21,CTTTATCCTACAAGGGAGATAAACTTTATC,0.268
22,GTTCACTGGGGAGACTCTCTCTCCTCTCCA,-1.08
23,GCCTAAGCAGGGCTAGACTTTAACCCCCTT,5.53
24,GTCCGAAGGTCAGCTGACCAACAGAGAAGG,1.61
25,CCCTTTGCTGATTACCTCAACTCCCACATC,1.81

row,Sequence,binding signal (log2 normalized intensity)
1,CACTGCTGGGTTTCTTCCCTAATGGACATC,1.25
2,CTCCCACCCTGCAATTCCCCTGGGCCCACG,2.23
3,ACCCTGTGATCATATAAGGAACAAAGTCAG,0.724
4,CTACTTAAAAAGAAATAGCCTGAAAATGTT,-1.15
5,GAGAAAAAGTCAACACTTAGGGTGGATACT,-0.81
6,ATGGCAAGAGATAAGGGTGGCCATCCATCC,-1.04
7,TAGGTCTTTTGGTGAGTCTTTGCCCCTGGA,3.46
8,ATTCCAAGGACTGAGATAAGAGAAGGGGTC,0.653
9,CTACAGGTATGCCTTTGAAGAGTACAGCCT,-0.571
10,TGTCGTTTGCTTAGTCTTATCTGAGGTGCC,0.932
11,AGTGCAGTATGCGCTCTGGGAAACAGCACT,-0.984
12,AGGGGACTTCGCTGGAGGTGTTAAAGTGCC,-0.669
13,AGCCACCTGTCACTCAATGCAGCAGCATTG,-1.21
14,GAGGTATGCCAGGAATGCTGAGGAGGGCCT,-1.14
15,TGCTCATAGCTACGGGTGACCTTGAGCACT,3.2
16,CTCAGCAAAGTCAGGTCAGTAGCCCAGGGT,-0.856
17,TTACCTTGGCAGCCACTGAGGCTCTGTGCC,-1.08
18,CAGAGTGATCTTTGAAACATAACAGCAACA,0.913
19,TGATTAGAAGAAAAGAGTTGCTCAAACCAA,-0.928
20,GTGGTGCTGTCCAAGGTGCTAGCTCCGACT,-1.09
21,TTTCATGTTGTTTAGTCATGCCGAACTTTC,1.21
22,TAGTATCACTGTGAAGACGTTAGGGGGCAG,0.128
23,TCGCCACTACAAAGGGAATCAGGTTTTCAG,-1.05
24,TAAAGAGACAAAAGTCCGGAATTTCCTCCT,-1.05
25,CACATAATGATACCAACAGGCTTAACATAA,-1.19

row,Sequence,binding signal (log2 normalized intensity)
1,CAGGACCTCGGCTCGGCCCCAGTCCCCCGG,3.72
2,GCTATCTTATCTTTGACCTTACCAGCCCAC,2.3
3,CGCCTGAACTTTGATCAGCATTCAAATGAG,3.85
4,AGGCGTATCTTTCTCAAGGACCTAGAGCTA,-1.08
5,AGTTTTTCCCATTCATAAAATTACGCCACA,-0.883
6,GGGGTGACCAGATTAATTACCCACAGGTGT,-0.825
7,CCACTTGGGCTTCCTCATCTGTTTATCTTT,1.32
8,CGCAGGGCGGACAGCGCCGCCACCCGGTTG,-1.08
9,TAATCCCTGAGCCTGGACCTTGGAATGTCA,3.33
10,GACATGGCTGTATGTGACATGGACATTCTA,1.14
11,GGTGTAAGCTCTGGAGTCCAAAGGTCAGCA,8.34
12,GGCTCCCTGGGGTTAAAATGTTTACTGAAG,0.875
13,CATTGCTCAGACAGGGCAAAGGTGCCAGGT,0.812
14,CAGAGATCTAGGTGAGGGATGAGGACTTTG,1.72
15,CAGAGAGAAGCCACTGCGACCTTTGCCCTC,9.89
16,ACCACACCACAGCGGGGCCTCTGTGTGGGG,-0.897
17,TCCCAAGGCAGCAATCCCCTGCAATACAGC,0.381
18,TCCAGGGTCACGTGCCGCTGCGGGTCACGT,2.35
19,CTTGGGGTCAAAGTACATCCCCTAAAACAT,5.71
20,CTGACCTCAAGTGACCTTTGACCTCTGGCC,11
21,AGGAGTGGTCCTGCTCAAAGGGGAAAGAGG,-1.1
22,AACCTCCGCGATTCCCGCCGCCTCCGCTGG,-1.09
23,CTTTCTAAAGTATGTGGTGGGTGTGGTGAT,2.51
24,CCATTAAACATCAGTTTGCATATGCCACAG,0.563
25,TCAGCTATCAGTTTACATTCCAGGGTGAAA,0.6

row,Sequence,binding signal (log2 normalized intensity)
1,GTCAGACCAGACAGCACCTCTCTGATGCCA,-1.13
2,CACAAACATACAACCATCAAAGGTCACTTT,4.1
3,TCAGTTAATGTACAGAGTATAATAAAGTGG,1.3
4,AGTTCCATGAGTTAGTGCCCTCTGGTGGCA,1.91
5,TGGCTCCTCACCTCCAGGGAGGGGAGAGGG,-1.13
6,GACGTGACCCGCCGCCCGAGGTCACTGTAT,2.98
7,TCTGGAAGGAAGGAGGGAGGCAGGGAGACA,-1.19
8,GTTACTGGAGGCTGGAGCTCCTGGGCCAAA,-1.22
9,TATCAGCAAGGAAATAAAAGAGCCTGAGCC,-1.12
10,CTGCAGATTGACTCAGGCATTCTGACCTTT,6.93
11,CCAGCACTGTCAGCAGGGGGATCCACTTCC,-1.21
12,GACAAAGCACAATCAAAGCAATGGCTACCA,-1.13
13,GTATTTTTGCAATCCTCCACTCTCCAAAAT,-0.386
14,GCGCGGCGCGCTGGGAAGGCTCGTTCTCGC,-0.789
15,CCCAGGAGCACAAATAACATTCCTAACATT,-1.16
16,CAGTAGAAAACAGAGAAGCCGTGGTGCTGT,-0.794
17,GTTCAGTTAGAGGGCTCAATGGATACACCA,-0.705
18,TTCTTGTATCTGATCTGTGTTTCCACAAAC,1.49
19,GGAGGCTCAGAGTCTGTGGAGACACTGCCA,-1.06
20,GAGAAACACATAAACCCTGACCCTCAAGGG,-0.481
